Data published in patent US20250043016A1 (SANYOU BIOPHARMACEUTICALS, published 2025).

T1: human TNFR2 full-length protein overexpressed on huTNFR2-HEK293 / huTNFR2-Jurkat cells (human, UniProt P20333 23-461)
T1 construct: Full-length entry including the signal peptide; also called TNFRSF1B
T1 sequence: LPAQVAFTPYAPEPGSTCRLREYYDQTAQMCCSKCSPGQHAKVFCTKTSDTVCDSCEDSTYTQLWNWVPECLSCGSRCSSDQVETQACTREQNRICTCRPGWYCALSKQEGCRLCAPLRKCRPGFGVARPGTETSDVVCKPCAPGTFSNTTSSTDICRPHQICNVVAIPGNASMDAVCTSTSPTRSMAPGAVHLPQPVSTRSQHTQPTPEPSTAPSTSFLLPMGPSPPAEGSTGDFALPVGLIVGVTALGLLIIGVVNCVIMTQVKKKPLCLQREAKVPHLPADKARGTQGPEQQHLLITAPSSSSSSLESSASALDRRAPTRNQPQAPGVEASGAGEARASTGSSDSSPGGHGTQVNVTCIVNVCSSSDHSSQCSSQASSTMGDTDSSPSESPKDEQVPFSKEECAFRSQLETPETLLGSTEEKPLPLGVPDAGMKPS


Legend:
[1] = biological target: T1, human TNFR2 full-length protein …; assay: FACS on huTNFR2-HEK293 cells
Experimental: (§1) The obtained VHH-Fc chimeric antibody was evaluated for affinity activity. The binding activity of the VHH-Fc chimeric antibody to a TNFR2 protein on cells was detected by FACS.
To detect the binding activity of the affinity-matured molecule to a human TNFR2 antigen, FACS was used to detect the candidate affinity-matured molecules in this example. For the specific method, see example 5.

[2] = biological target: T1, human TNFR2 full-length protein …; assay: FACS on huTNFR2-HEK293 cells, PE anti-human IgG-Fc
Experimental: as §1
To detect the binding activity of the humanized antibody to a human TNFR2 antigen, FACS was used to detect the anti-TNFR2 VHH-Fc chimeric antibody and the corresponding humanized antibody thereof. The specific method was similar to that in example 5.

[3] = biological target: T1, human TNFR2 full-length protein …; assay: FACS on huTNFR2-HEK293 cells, PE anti-human IgG-Fc; remark: listed apart in the source
Experimental: as §1

[4] = biological target: recombinant cynomolgus monkey TNFR2 (SinoBiological, 90102-C08H) (cynomolgus monkey); assay: ELISA on plate-coated recombinant cynomolgus monkey TNFR2, detection with anti-human-IgG-Fc-HRP

EC50 [1] [µg/mL]	EC50 (read off the curve) [2] [µg/mL]	EC50 [3] [µg/mL]	EC50 (read off the curve) [4] [µg/mL]	Binder
0.336	~0.5	–	–	humanized antibody NB92-161-hVH5 (Fc fusion) EVQLVESGGGLVQPGGSLRLSCAASGSIFSINDMGWYRQAPGKGLELVAAIGRGGGSTNYADSVKGRFTISRDNAKNTLYLQMNSLRAEDTAVYYCHAEISQLTWAFRDYWGQGTLVTVSS[human IgG1 Fc not listed]
0.0664	–	–	–	anti-TNFR2 affinity-matured molecule 161-hVH5-48 (Fc fusion) EVQLVESGGGLVQPGGSLRLSCAASGSIRFINDMGWYRQAPGKGLELVAAIGRGGGSTNYADSVKGRFTISRDNAKNTLYLQMNSLRAEDTAVYYCHAEISQLGYAFRDYWGQGTLVTVSS[human IgG1 Fc not listed]
–	~0.5	0.513	0.2	anti-TNFR2 VHH-Fc chimeric antibody NB92-161 (Fc fusion, C-terminus of VHH ligated to N-terminus of human IgG1 Fc fragment; also called parent molecule) EVQLVESGGGLVQPGGSLRLSCAASGSIFSINDMGWYRQAPGKQRELVAAIGRGGGSTNYADSVKGRFTISRDNAKNTVYLQMNSLKPEDTAVYYCHAEISQLTWAFRDYWGQGTQVTVSS[human IgG1 Fc not listed]
–	~0.6	–	–	humanized antibody NB92-161-hVH4 (Fc fusion) EVQLVESGGGLVQPGGSLRLSCAASGSIFSINDMGWYRQAPGKQRELVAAIGRGGGSTNYADSVKGRFTISRDNAKNTLYLQMNSLRAEDTAVYYCHAEISQLTWAFRDYWGQGTLVTVSS[human IgG1 Fc not listed]
